Laboratory results: PubChem BioAssay AID1508623 (National Center for Advancing Translational Sciences (NCATS), 2021)
The whole screen tested about 48,000 compounds, of which about 450 (0.94%) were called active. Roughly 19% stayed inconclusive and do not appear here. Calls come from the whole dose curve; as a rule, active = well fitted inhibition curve with a large enough effect; inconclusive = small, poorly fitted or top-dose-only effect; inactive = no such curve, though single readings can be large or run the other way. Some of the results follow.

test: Primary qHTS for Identification of Small Molecule Inhibitors of Huntingtin Promoter Activity; conditions: HEK293 HTT promoter firefly luciferase reporter (activity 0% = vehicle and -100% = no light), 24 h; series mostly up to 57.5 µM; activity change, negative = inhibition: at the top concentration; note: nearly all actives have a fitted effect of over 50% in size
Summary of the method: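 HEK293 luciferase promoter-reporter cells (2,500/well) plated 24 h, then compounds added at up to 57.5 uM final for 24 h at 37 °C. Firefly luminescence by Dual-Glo, normalized to vehicle (0%) and zero RLU (-100%).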
Potency is the fitted concentration of half-maximal effect.

Compound | activity change, negative = inhibition | Potency
O=[N+]([O-])c1cncn1CCN1CCOCC1 | inactive: 6.6% | –
CCc1ccccc1NC(=O)C(C)n1c(=O)cc(C)c2c(C)nn(-c3ccccc3)c21 (configuration not stated) | inactive: -14.8% | –
CCOC(=O)C1CCCN(C(=O)Cn2ncc3c4ccccc4n(Cc4ccccc4)c3c2=O)C1 (configuration not stated) | inactive: -4.28% | –
COc1ccccc1NC(=O)c1cc2c(C)nn(-c3ccccc3)c2s1 | inactive: -1.12% [at 11.5 µM] | –
COc1ccc(N2CCN(C(=O)COCc3cc(-c4ccc5c(c4)OCO5)on3)CC2)cc1 | inactive: -29.5% | –
COc1ccc(NC(=O)c2sc3nc(C(F)(F)F)cc(C)c3c2N)cc1OC | inactive: -14.4% | –
Cc1cc(C)cc(Oc2nc3ccccn3c(=O)c2/C=C(\C#N)c2nc3ccccc3s2)c1 | inactive: -4.17% [at 11.5 µM] | –
Cn1c(=O)cc(SCC(=O)N2CCN(c3ccccc3F)CC2)c2ccc(Cl)cc21 | inactive: -9.73% | –
COCCCNC(=O)CSc1nc2cc3c(cc2c(=O)n1CCCC(=O)NCc1ccc2c(c1)OCO2)OCO3 | inactive: -12.3% | –
CCn1nc(-c2ccccc2)c(-c2ccccc2)c(C(=O)Nc2ccc(NC(C)=O)cc2)c1=O | inactive: -4.91% | –
Cc1ccc(Cn2ccnc2SCC(=O)Nc2nnc(C)s2)cc1 | inactive: -27% | –
COc1ccc(OC)c(NC(=O)Nc2c(C)n(C)n(-c3ccccc3)c2=O)c1 | inactive: -17.1% | –
COc1ccc(CNC(=O)c2cc3sccc3n2Cc2ccc(C)cc2)cc1 | inactive: 22% | –
O=C(Cc1ccccc1)Nc1sc2c(c1C(=O)Nc1ccc(Br)cc1)CCCC2 | inactive: -30.5% | –
Cc1ccc(NC(=O)C2CCN(c3nc(-c4ccc(C(C)C)cc4)no3)CC2)c(Cl)c1 | – | active: 0.1 µM
Cc1ccc(C(=O)NC2(C(F)(F)F)N=C(c3ccccc3)N(Cc3ccccc3)C2=O)cc1 (configuration not stated) | inactive: -16.4% | –
CCc1c(C)[nH]c2c1C(=O)C(CN1CCOCC1)CC2 (configuration not stated) | inactive: 7.91% | –
CCOc1ccc(CNC(=O)c2cc(-c3ccc(Cl)s3)nc3ccccc23)cc1 | inactive: -12.7% | –
Cc1ccc2c(CNCc3ccc(C)o3)c(C(=O)O)n(Cc3ccc(F)cc3)c2c1 | inactive: -28.2% | –
COc1ccccc1NC(=O)Cn1c(=O)n(CC(=O)NCc2ccccc2Cl)c(=O)c2sccc21 | inactive: -1.48% | –
O=C(c1ccc2c(c1)N(Cc1ccc(Cl)cc1)C(=O)c1ccccc1S2=O)N1CCCCC1 (configuration not stated) | inactive: -28.9% | –
CCO/C([O-])=N/c1c[n+](N2CCOCC2)no1 | inactive: 12.3% | –
CCOC(=O)C1CCN(C(c2ccc(C)cc2)c2c(O)cc(C)n(CCOC)c2=O)CC1 (configuration not stated) | inactive: -7.76% | –
CCOc1ccc(-c2cc(CCCC(=O)NCCc3cc(OC)c(OC)c(OC)c3)no2)cc1 | – | active: 15.8 µM
COc1ccc(CCNC(=O)CCCn2nc(C)c3sc4ccccc4c3c2=O)c(OC)c1 | inactive: -9.73% | –

Compound | activity change, negative = inhibition | Potency
CCOc1ccc(NC(=O)Cn2c(=O)n(CCCS(=O)(=O)C3CCCCC3)c(=O)c3ccccc32)cc1 | inactive: -7.28% | –
Nc1ccc(O)c([N+](=O)[O-])c1 | inactive: 8.48% [at 116 µM] | –
Cc1ccc(C(=O)Nc2ccccc2)cc1S(=O)(=O)Nc1ccccc1 | inactive: -18.4% | –
COc1ccc(N2CCN(C(=O)C3CCN(S(=O)(=O)c4cn(C)cn4)CC3)CC2)cc1 | inactive: -6.54% | –
Cc1ccc(OC(=O)CSc2nnc(-c3ccc4c(c3)OCO4)o2)cc1 | inactive: -16.5% | –
Cc1ccc(-n2ncc3c(N4CCC(Cc5ccccc5)CC4)ncnc32)cc1C | inactive: -1.07% | –
Cc1cccc(N(C)C(=O)Cc2c(C(=O)O)[nH]c3ccccc23)c1 | inactive: -21.7% | –
COc1ccc(CCNc2nc3cc(OC)c(OC)cc3c3nc(-c4ccccc4)nn23)cc1OC | inactive: -32.5% | –
Cc1cccc(N2CCN(c3ncnc4c3nc3n4CCCCC3)CC2C)c1 (configuration not stated) | – | active: 5.01 µM
COC(=O)c1cc(NC(=O)c2sc3ccccc3c2Cl)cc(C(=O)OC)c1 | inactive: -2.04% | –
COC(=O)c1cc2occc2n1CC(=O)Nc1ccc(C)cc1Cl | inactive: -14.6% | –
N[C@@H](CCC(=O)N[C@@H](CS)C(=O)NCC(=O)O)C(=O)O | inactive: 6.14% [at 25.2 µM] | –
Cc1ccc(C)c(-n2nnc(-c3nc(-c4ccccc4C)no3)c2C)c1 | inactive: 23.8% | –
COc1ccc(-c2nn(-c3ccc(C)cc3)c3c2cnc2ccc(C)cc23)cc1OC | inactive: -7.28% | –
CCCN1CCN(CCCNC(=O)C(CC)n2nc(C)n3c(cc4occc43)c2=O)CC1 (configuration not stated) | inactive: -14.4% | –
O=C(NCC(c1cccnc1)N1CCN(Cc2ccccc2)CC1)C(=O)Nc1cccc(Cl)c1 (configuration not stated) | inactive: -20.5% | –
O=C(O)c1cccc(-n2cnc3cccnc32)c1 | inactive: -18.1% | –
CCN(CC)CCNC(=O)c1cn(CC)c2ccc(S(=O)(=O)N(C)C3CCCCC3)cc2c1=O | inactive: -7.63% | –
CCC(C(=O)NC1CCCCC1)n1c(SCc2cccc(C)c2)nc2ccncc21 (configuration not stated) | inactive: -18.4% | –
Cn1c(C(=O)N2CCC(C(=O)NCCc3ccccc3)CC2)cc2sccc21 | inactive: -1.48% | –
N#Cc1ccccc1CSc1nnc2ccc3ccccc3n12 | inactive: 9.85% | –
COCc1c(Br)c(C)nc2sc3c(=O)n(-c4cccc(Br)c4)nnc3c12 | inactive: -11.2% | –
COc1cc(C(=O)NCCCCCC(=O)O)cc(OC)c1OC | inactive: 6.14% | –
CC(NC(=O)c1ccco1)c1nc(-c2ccccc2)no1 (configuration not stated) | inactive: -10.3% | –
Cc1cc(=O)n(CC(=O)NC(C)c2ccccc2)c2c1c(C)nn2-c1cccc(F)c1 (configuration not stated) | inactive: -9.41% | –

Compound | activity change, negative = inhibition | Potency
Nc1ccc([N+](=O)[O-])cc1O | inactive: -18.5% [at 116 µM] | –
CCN1C(=O)c2ccccc2S(=O)(=O)c2ccc(C(=O)NCc3ccc(OC)cc3)cc21 | inactive: -12.8% | –
CCc1ccccc1NC(=O)CSc1nnc(-c2ccccc2)c(-c2ccccc2)n1 | inactive: -26.2% | –
COCCNC(=O)Cn1c(=O)c2cccn2c2ccc(F)cc21 | inactive: 7.36% | –
CCc1nnc(NC(=O)c2nc(SC)ncc2Cl)s1 | inactive: -4.33% | –
NC(=O)CSc1nc2c(oc3ccccc32)c(=O)n1Cc1ccccc1 | inactive: -7.17% | –
Cc1ccccc1C(=O)Nc1c(C(=O)Nc2cccc(F)c2)oc2ccccc12 | inactive: -18.3% | –
O=C(NCc1ccc2c(c1)OCO2)c1ccc2c(c1)N(Cc1ccccc1F)C(=O)c1ccccc1S2=O (configuration not stated) | inactive: -12.9% | –
C[C@@H]1CCC[C@H](C)N1CCCC(O)(c1ccccc1)c1ccccn1 (some centres not stated) | inactive: -2.65% | –
CCCN(C(=O)c1c(C)oc2ncnc(N3CCOCC3)c12)c1ccc(Cl)c(Cl)c1 | inactive: -10.2% | –
Cc1cccn2c3c(c(=O)nc12)C(c1ccc(F)cc1)CC(=O)N3 (configuration not stated) | inactive: -15.3% | –
O=S(=O)(NCC(c1ccco1)N1CCN(c2ccccc2)CC1)c1ccccc1 (configuration not stated) | inactive: -13.3% | –
CCOc1ccc(Cn2nnc(C(=O)Nc3ccc(Cl)cc3)c2N)cc1 | inactive: 0.761% | –
COc1ccccc1CNC(=O)C1CCN(C(=O)c2sccc2-n2cccc2)CC1 | inactive: -28.1% | –
CN(C1CCCCC1)S(=O)(=O)c1ccc2c(c1)c(=O)c(C(=O)NCc1ccc(F)cc1)cn2C | inactive: -7.31% | –
CCn1ccc2c(OCC(=O)Nc3ccc(C(C)=O)cc3)cccc2c1=O | inactive: -20.6% | –
O=c1c(=O)n(-c2ccccc2)ccn1Cc1c(F)cccc1Cl | inactive: -15.6% | –
CCOc1cccc(NC(=O)c2sc3nc(-c4ccc(F)cc4)ccc3c2N)c1 | inactive: -0.275% | –
COc1cc(CNCCSc2nnnn2C)ccc1OCc1ccc(C)cc1 | inactive: 26.2% | –
O=C(COCc1cc(-c2cccs2)on1)N1CCN(c2ccc(F)cc2)CC1 | inactive: -27.6% | –
Cc1nc2cccnc2n1C1CCN(C(=O)Nc2ccccc2)CC1 | inactive: -17% | –
Cc1cc(C)cc(N2CC(c3nnc(NC(=O)c4ccco4)s3)CC2=O)c1 (configuration not stated) | inactive: -21.4% | –
COc1cc(C(=O)Nc2ccc(-n3c(C)nc4ccccc4c3=O)cc2)cc(OC)c1OC | inactive: 0% | –
O=c1c2oc3ccccc3c2n(Cc2ccc(F)cc2)c(=O)n1Cc1ccco1 | inactive: -9.06% | –
CCCCn1c(=NC(=O)c2c(-c3c(F)cccc3Cl)noc2C)c(C(=O)OCC)cc2c(=O)n3ccccc3nc21 | inactive: -9.29% | –

Compound | activity change, negative = inhibition | Potency
Cc1ccc(-c2noc(-c3ccc(NCc4cccnc4)c([N+](=O)[O-])c3)n2)cc1 | inactive: 5.16% | –
CCOC(=O)C1CCN(C(c2ccc(OCC)cc2)c2c(O)cc(C)n(CCOC)c2=O)CC1 (configuration not stated) | inactive: -13% | –
COc1ccc(CNS(=O)(=O)c2cc(Br)cc3c2N(C(C)=O)C(C)C3)cc1 (configuration not stated) | inactive: -19.4% | –
O=C(NCc1cccc(F)c1)c1ccc(CN2CC(=O)N3CCCCC3C2=O)cc1 (configuration not stated) | inactive: -19.5% | –
CCCCc1ccc(-n2nc3cc(Cl)c(NC(=O)c4ccc(OC)cc4)cc3n2)cc1 | inactive: 15.7% | –
CCOC(=O)c1ccc2nc(C)cc(Nc3ccc(OC(C)C)cc3)c2c1 | inactive: -28.8% | –
Cc1cccc(C(=O)NCCc2nc3ccccc3n2Cc2ccc(Cl)cc2)c1 | inactive: -11.9% | –
Cc1ccc(OC(C)C(=O)N2CCN(CCc3ccncc3)CC2)cc1C (configuration not stated) | inactive: -32.9% | –
Cc1ccc(NC(=O)c2ccc(Cl)cc2Cl)c(C(=O)c2ccccc2)c1 | inactive: -20.6% | –
O=S(=O)(NCc1ccc(Cl)cc1)c1ccc2[nH]c3c(c2c1)CCCC3 | inactive: -6.73% | –
CCOc1ccc(-c2cc3c(=O)n(Cc4nc(-c5ccccc5OCC)oc4C)ccn3n2)cc1Cl | inactive: -7% | –
Cc1ccc(Cn2c(C)c(CNCC(C)c3ccccc3)c(C(=O)O)c2C)cc1 (configuration not stated) | inactive: -25.8% | –
CCC(CC)C(=O)Nc1ccccc1SCc1cc(=O)c2cccc(C)c2[nH]1 | inactive: 0.0389% | –
COCCCNC(=O)C1CCC(Cn2c(=O)c3sccc3n(C)c2=O)CC1 (configuration not stated) | inactive: -1.45% | –
Cc1ccc(NC(=O)CN2CCN(c3ccccc3F)CC2)cc1F | inactive: -2.78% | –
CCOC(=O)C1CCN(c2nc3c(S(=O)(=O)c4ccccc4)nnn3c3ccc(Cl)cc23)CC1 | inactive: 12.1% | –
COc1ccc(C(=O)c2sc3nc(-c4ccc(C)cc4)cc(C(F)(F)F)c3c2N)cc1 | inactive: -13.1% | –
COc1cc(OC)cc(C(=O)Nc2ccc(-c3nc4cc(C(C)C)ccc4o3)cc2)c1 | inactive: -25.3% | –
Cc1ccc(C)c(N2CCN(S(=O)(=O)c3ccc(-c4coc(C)n4)cc3)CC2)c1 | inactive: -28.9% | –
CCCCN(CCCNC(=O)c1cc(Nc2ccc(OC)cc2)nc2ccccc12)Cc1ccccc1 | inactive: 0% | –
COc1cc2c3cc1Oc1cc(ccc1O)C[C@@H]1c4c(cc(OC)c(O)c4Oc4ccc(cc4)C[C@@H]3N(C)CC2)CC[N+]1(C)C | inactive: 9.46% | –
Cc1cccc(N2CCN(C(=O)Cn3ncc4c5ccccc5n(C)c4c3=O)CC2C)c1 (configuration not stated) | inactive: 5% | –
